Reference: PubChem BioAssay AID504333 (National Center for Advancing Translational Sciences (NCATS), 2011)
Among all 360,000 compounds or so, about 16,000 (4.4%) were called active. This list was built around the results that the source calls inconclusive (neither active nor inactive); the mix of calls is not that of the screen. Calls follow the shape of the dose curve; as a rule, active = well fitted inhibition curve with a large enough effect; inconclusive = small, poorly fitted or top-dose-only effect; inactive = no such curve, though single readings can be large or run the other way. A potency beside an inconclusive call is a rough fit, not a confirmed value.

target: Bromodomain adjacent to zinc finger domain protein 2B (Homo sapiens) (UniProt Q9UIF8); assay: qHTS Assay for Inhibitors of BAZ2B; settings: AlphaScreen BAZ2B-H3K14Ac peptide displacement; activity change, negative = inhibition: at 114 µM (top of the series) unless noted; also: nearly all actives have a fitted effect of over 60% in size
How it was run: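 In this displacement format the biotinylated H3(5-23) peptide acetylated at Lys14 serves as ligand at 50 nM, with BAZ2B at 50 nM in PBS pH 7.4 containing 0.01% Tween-20. Donor and acceptor beads are 10 ug/mL final.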
% is scaled to controls: 0 for no effect and ±100 for the full control effect; potency is read from the fitted curve at half-maximal effect; tags tell the direction and shape of the fitted curve.

Sequence of UniProt Q9UIF8 (Q9UIF8 whole entry, looked up, the tested form may be a part): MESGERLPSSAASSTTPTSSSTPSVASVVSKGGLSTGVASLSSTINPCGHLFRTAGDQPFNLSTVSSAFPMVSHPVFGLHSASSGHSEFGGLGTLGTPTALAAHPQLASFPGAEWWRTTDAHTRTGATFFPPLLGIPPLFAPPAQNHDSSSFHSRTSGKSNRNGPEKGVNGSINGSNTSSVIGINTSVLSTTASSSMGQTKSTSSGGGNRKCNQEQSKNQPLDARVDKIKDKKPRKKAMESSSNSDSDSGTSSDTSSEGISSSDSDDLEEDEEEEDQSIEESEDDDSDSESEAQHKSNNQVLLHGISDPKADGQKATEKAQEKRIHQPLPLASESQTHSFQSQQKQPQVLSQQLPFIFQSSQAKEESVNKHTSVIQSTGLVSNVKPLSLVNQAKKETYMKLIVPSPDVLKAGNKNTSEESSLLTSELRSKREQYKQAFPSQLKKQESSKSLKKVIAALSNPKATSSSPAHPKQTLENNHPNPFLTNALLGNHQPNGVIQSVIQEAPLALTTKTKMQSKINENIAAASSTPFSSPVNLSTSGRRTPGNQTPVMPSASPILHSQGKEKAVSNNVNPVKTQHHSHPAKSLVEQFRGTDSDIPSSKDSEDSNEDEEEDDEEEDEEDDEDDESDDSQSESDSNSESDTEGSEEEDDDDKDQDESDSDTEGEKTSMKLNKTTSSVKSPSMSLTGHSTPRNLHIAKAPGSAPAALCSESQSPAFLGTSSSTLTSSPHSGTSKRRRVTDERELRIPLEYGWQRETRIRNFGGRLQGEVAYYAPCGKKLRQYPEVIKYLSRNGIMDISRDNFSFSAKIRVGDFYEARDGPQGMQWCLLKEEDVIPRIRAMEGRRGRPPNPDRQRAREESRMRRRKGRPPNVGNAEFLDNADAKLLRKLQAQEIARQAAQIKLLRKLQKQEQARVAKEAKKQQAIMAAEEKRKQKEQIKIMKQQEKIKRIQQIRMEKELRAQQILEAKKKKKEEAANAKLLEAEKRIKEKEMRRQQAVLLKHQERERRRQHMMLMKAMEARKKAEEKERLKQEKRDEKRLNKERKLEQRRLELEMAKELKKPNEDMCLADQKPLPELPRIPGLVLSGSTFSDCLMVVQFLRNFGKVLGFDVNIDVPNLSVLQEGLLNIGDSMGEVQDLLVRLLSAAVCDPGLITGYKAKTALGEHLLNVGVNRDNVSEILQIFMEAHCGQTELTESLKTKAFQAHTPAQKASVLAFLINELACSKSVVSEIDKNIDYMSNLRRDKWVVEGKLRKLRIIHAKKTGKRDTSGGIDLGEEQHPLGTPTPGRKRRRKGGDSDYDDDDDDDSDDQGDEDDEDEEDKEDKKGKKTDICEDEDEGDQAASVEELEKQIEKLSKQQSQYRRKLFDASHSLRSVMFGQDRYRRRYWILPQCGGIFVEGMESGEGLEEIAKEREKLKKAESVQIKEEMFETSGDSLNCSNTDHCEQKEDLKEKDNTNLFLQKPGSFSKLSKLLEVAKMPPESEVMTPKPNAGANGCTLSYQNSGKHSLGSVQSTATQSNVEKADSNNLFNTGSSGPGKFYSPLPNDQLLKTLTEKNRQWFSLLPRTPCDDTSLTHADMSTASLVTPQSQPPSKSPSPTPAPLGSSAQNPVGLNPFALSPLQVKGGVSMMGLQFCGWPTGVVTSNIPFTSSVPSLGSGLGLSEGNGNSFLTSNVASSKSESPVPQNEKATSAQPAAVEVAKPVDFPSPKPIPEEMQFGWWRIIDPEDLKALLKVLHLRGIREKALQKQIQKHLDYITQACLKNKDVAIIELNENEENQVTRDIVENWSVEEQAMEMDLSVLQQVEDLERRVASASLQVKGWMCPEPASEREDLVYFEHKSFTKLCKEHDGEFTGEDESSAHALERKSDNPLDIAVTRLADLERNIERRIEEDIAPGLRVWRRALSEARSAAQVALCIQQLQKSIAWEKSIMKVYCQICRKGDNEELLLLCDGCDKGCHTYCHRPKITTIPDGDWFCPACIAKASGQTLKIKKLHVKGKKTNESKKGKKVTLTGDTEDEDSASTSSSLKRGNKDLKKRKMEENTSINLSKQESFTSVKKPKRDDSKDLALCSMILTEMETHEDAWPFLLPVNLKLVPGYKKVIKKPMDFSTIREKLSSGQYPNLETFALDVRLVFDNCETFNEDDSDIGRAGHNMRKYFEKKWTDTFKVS

Compound | Potency | activity change, negative = inhibition
Cc1cc(C)n(C(=O)CNc2ccc(C)c(C)c2)n1 | inconclusive: 79.4 µM [inhibitor, single point] | –
COc1ccc(OC)c(-c2c3cc(O)c(=O)cc-3oc3cc(O)c(O)cc23)c1 | active: 2.82 µM | –
Cc1ccc(NC(=O)c2ccc(N3CCOCC3)c([N+](=O)[O-])c2)cc1S(=O)(=O)N1CCOCC1 | inconclusive: 79.4 µM [inhibitor, single point] | –
Cc1ccc(S(=O)(=O)NC2=C(N3CCN(Cc4ccccc4)CC3)C(=O)c3ccccc3C2=O)cc1 | active: 7.94 µM | –
O=C(O)C1(Cc2nc3ccccc3[nH]2)CCCC1 | – | inactive: -3.91%
Cn1nnc2c[n+](CC(=O)c3ccc4ccccc4c3)cc(Br)c21 | inconclusive: 89.1 µM [inhibitor, single point] | –
COc1ccc2nc(N/C(N)=N/C(=S)Nc3ccc(C)c(C)c3)nc(C)c2c1 | inconclusive: 100 µM [inhibitor, single point] | –
Cc1cc(C(=O)COC(=O)C2=COCCO2)c(C)n1-c1ccc2c(c1)OCO2 | active: 50.1 µM | –
CN(C)/C=C/C=C1C(=O)CCCC1=O | active: 56.2 µM | –
CN(C)c1ccc(CNC(=O)c2cc(S(=O)(=O)N3CCCC3)cn2C)cc1 | inconclusive: 89.1 µM [inhibitor, single point] | –
Cc1ccc(C)c(N2CCN(C3=C(c4ccccc4)C(=O)c4ccccc43)CC2)c1 | inconclusive: 2.24 µM [inhibitor, full curve] | –
Cc1ccc(Cl)cc1NC(=O)Cn1c(=O)n(Cc2ccc(C(=O)NCc3ccc4c(c3)OCO4)cc2)c(=O)c2ccccc21 | inconclusive: 89.1 µM [inhibitor, single point] | –
O=C1c2cccc3cccc(c23)C(=O)N1CCN1CCN(CC(O)COCc2ccc(Cl)cc2)CC1 (configuration not stated) | inconclusive: 50.1 µM [inhibitor, partial curve] | –
CC(C)c1nc(CNC(=O)C2CCC(=O)N(CCc3cccc(F)c3)C2)cs1 (configuration not stated) | – | inactive: 0.818%
CC(=C/c1ccccc1)/C=N/n1c(-c2ccncc2)n[nH]c1=S | inconclusive: 44.7 µM [inhibitor, partial curve] | –
CC(=O)OCC(=O)[C@@]12OC3(CCCC3)O[C@@H]1C[C@H]1[C@@H]3CCC4=CC(=O)C=C[C@]4(C)[C@@]3(F)[C@@H](O)C[C@@]12C | inconclusive: 79.4 µM [inhibitor, single point] | –
COc1ccc(S(=O)(=O)Nc2ccc3c(c2)n(C)c(=O)n3C)cc1OC | inconclusive: 89.1 µM [inhibitor, single point] | –
O=C(O)c1cc(-c2ccc(/C=N/NC(=S)Nc3ccccc3)o2)ccc1Cl | inconclusive: 70.8 µM [inhibitor, partial curve] | –
COc1cccc(NC(=O)CN2CCSc3ccccc32)c1 | inconclusive: 56.2 µM [inhibitor, single point] | –
CC(C)(C)S(=O)(=O)c1cnc2c(S(=O)(=O)c3ccccc3)cnn2c1N | inconclusive: 89.1 µM [inhibitor, single point] | –
COc1ccccc1NC(=O)COC(=O)c1cc2c(s1)CCC2 | active: 56.2 µM | –

Compound | Potency | activity change, negative = inhibition
CC(C)(C)c1ccc(C(=O)NNc2cc(N3CCCCC3)nc(N3CCCCC3)n2)cc1 | active: 10 µM | –
Cc1cc2c(NCCc3ccccc3)ncnc2s1 | inconclusive: 89.1 µM [inhibitor, single point] | –
COC(=O)C1=C(C(=O)OC)[C@@H]2N(Cc3ccccc3)c3ccccc3[C@@]23C[C@@H](CO)N(C(=O)NC2CCCC2)C3=N1 | inconclusive: 56.2 µM [inhibitor, single point] | –
CCOC(=O)c1c(C)[nH]c(C)c1S(=O)(=O)N(C)CC(=O)Nc1ccc(C)c(N(C)C)c1 | inconclusive: 70.8 µM [inhibitor, partial curve] | –
COc1ccc(Cl)cc1S(=O)(=O)n1nnc2ccccc21 | inconclusive: 89.1 µM [inhibitor, single point] | –
CCc1ccc(Nc2n[n+](-c3ccccc3)c(-c3ccc(SC)cc3)s2)cc1 | inconclusive: 89.1 µM [inhibitor, single point] | –
COc1ccc(-c2nc(CC(=O)O)cs2)cc1OC | inconclusive: 89.1 µM [inhibitor, single point] | –
COc1ccc(Cn2c(=O)[nH]c3cc(C(=O)N4CCN(c5ccccc5OC)CC4)ccc3c2=O)cc1 | inconclusive: 31.6 µM [inhibitor, full curve] | –
Cc1cc(C(=O)CSc2nc3ccccc3n2C)c(C)n1C | inconclusive: 25.1 µM [inhibitor, single point] | –
CC(=O)Oc1ccc(N2C(=O)CC(N3CCOCC3)C2=O)cc1 (configuration not stated) | inconclusive: 89.1 µM [inhibitor, single point] | –
CC(C(=O)N1CCCC1)N(c1ccccc1)S(C)(=O)=O (configuration not stated) | inconclusive: 89.1 µM [inhibitor, single point] | –
Cc1ccc(C)c(OCCCNCc2ccccc2)c1 | inconclusive: 79.4 µM [inhibitor, single point] | –
Cc1c(C(=O)Nc2ccc3c(c2)OCCO3)oc2ccc(Br)cc12 | – | inactive: -5.38%
CCCCNCCCOc1cccc(Cl)c1Cl | – | inactive: 7.71%
O=C(NCc1ccccc1)c1nc(S(=O)(=O)Cc2ccccc2)ncc1Cl | inactive | –
COC(=O)Cn1c(C)c(/C=C/c2cc[n+](C)cc2)c2ccccc21 | inconclusive: 89.1 µM [inhibitor, single point] | –
COc1cc(/C=C/C(=O)OCC(=O)Nc2ccc(S(=O)(=O)N3CCCC3)cc2)ccc1O | – | inactive: -8.04%
O=c1oc2ccccc2c(Nc2ccc3ccccc3c2)c1[N+](=O)[O-] | inconclusive: 89.1 µM [inhibitor, single point] | –
CCCn1c(C)cc(/C=C(\C#N)C(=O)OCC(=O)Nc2cccc(S(N)(=O)=O)c2)c1C | inconclusive: 89.1 µM [inhibitor, single point] | –
Cc1ccc(C(=O)NC2=NCCS2)cc1 | inconclusive: 100 µM [inhibitor, single point] | –
Cc1ccc(Nc2nc(-c3ccccc3)cs2)nc1 | inconclusive: 56.2 µM [inhibitor, partial curve] | –
